Laboratory results as given in PubChem BioAssay AID588453 (National Center for Advancing Translational Sciences (NCATS), 2011).
About 4,000 (1%) of roughly 390,000 compounds were called active. Inconclusive means that the source gave no clear call. Such entries were picked first, then a sample of the others. Calls come from the whole dose curve; as a rule, active = well fitted inhibition curve with a large enough effect; inconclusive = small, poorly fitted or top-dose-only effect; inactive = no such curve, though single readings can be large or run the other way. Where the call is inconclusive, the potency comes from a doubtful curve fit.

Target: Thioredoxin reductase 1, cytoplasmic (Rattus norvegicus) (UniProt O89049)
Test: qHTS Assay for Inhibitors of Mammalian Selenoprotein Thioredoxin Reductase 1 (TrxR1): qHTS; note: nearly all actives have a fitted effect of over 65% in size
Settings: recombinant rTrxR1, NADPH fluorescence consumption, selenite substrate; series mostly up to 114 µM
Method in brief: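 Rat TrxR1 (90 nM in the dispensed reagent) was pre-reduced with 400 uM NADPH for 5 min at room temperature, then incubated with compound for 15 min. After 400 uM selenite was added, NADPH fluorescence (Ex 340/Em 450 nm) was followed for 8 min.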
Potency is the fitted concentration of half-maximal effect; tags give direction and shape of the fitted curve.

Sequence of UniProt O89049 (O89049 whole entry, looked up): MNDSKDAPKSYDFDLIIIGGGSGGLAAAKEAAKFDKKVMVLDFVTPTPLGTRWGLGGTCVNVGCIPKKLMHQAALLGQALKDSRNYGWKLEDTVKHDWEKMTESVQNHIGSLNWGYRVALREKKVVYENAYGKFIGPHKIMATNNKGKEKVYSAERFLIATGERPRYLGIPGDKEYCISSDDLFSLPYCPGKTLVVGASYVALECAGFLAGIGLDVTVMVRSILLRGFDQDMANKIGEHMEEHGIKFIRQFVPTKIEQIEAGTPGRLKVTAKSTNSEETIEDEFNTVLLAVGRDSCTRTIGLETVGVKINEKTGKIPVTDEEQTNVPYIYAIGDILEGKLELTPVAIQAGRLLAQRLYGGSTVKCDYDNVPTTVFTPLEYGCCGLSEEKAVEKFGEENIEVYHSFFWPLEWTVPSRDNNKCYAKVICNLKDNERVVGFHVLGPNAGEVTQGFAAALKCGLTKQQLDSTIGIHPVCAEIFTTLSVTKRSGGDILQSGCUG

Row | Structure (SMILES) | Potency
1 | Cc1cccc(NC2=NC(C)(C)N=C(N)N2)c1C | inactive
2 | CCOC(=O)C1=C(CSc2nc3c(cc2C#N)CN(C)CC3)OC(N)=C(C#N)C1c1ccc(F)cc1 (configuration not stated) | inconclusive: 20 µM [inhibitor, partial curve]
3 | CC(=O)c1cccc(Nc2cc(C)nc3nc(Cc4ccccc4)nn23)c1 | inactive
4 | Cc1ccccc1OCCCCn1c(CO)nc2ccccc21 | inactive
5 | CCn1c(SCc2cccc(C(F)(F)F)c2)nnc1-c1ccco1 | inconclusive: 17.8 µM [inhibitor, full curve]
6 | Clc1nc(NCc2ccco2)c2ccccc2n1 | inconclusive: 89.1 µM [inhibitor, single point]
7 | CCCCn1c(N)c(N(CCC(C)C)C(=O)c2ccc([N+](=O)[O-])o2)c(=O)[nH]c1=O | inconclusive: 56.2 µM [inhibitor, single point]
8 | O=C(Nc1sccc1C(=O)NCc1ccco1)c1cccnc1 | inconclusive: 17.8 µM [inhibitor, full curve, poor fit]
9 | Cc1ccc(C(=O)CCNc2ccc(Cl)cc2)o1 | inconclusive: 56.2 µM [inhibitor, partial curve, poor fit]
10 | COc1cc(S(=O)(=O)N2CCCCCC2)ccc1-n1cnnn1 | inactive
11 | O=C(CCS(=O)(=O)c1ccc(Br)cc1)Nc1ccc2c(c1)OCO2 | inconclusive: 20 µM [inhibitor, full curve]
12 | Nc1cc(=O)[nH]c(SCC(=O)NC2CCCc3ccccc32)n1 (configuration not stated) | inactive
13 | O=C(NCc1ccccc1Cl)c1ccc2c(c1)N(Cc1ccccc1)C(=O)CS2 | inactive
14 | CCC(OC(C)=O)c1cc2c(cc1[N+](=O)[O-])OCCO2 (configuration not stated) | inactive
15 | COc1ccc(CNC(=O)C2(CC3CC(c4ccccc4)=NO3)CCNCC2)cc1 (configuration not stated) | inconclusive: 22.4 µM [inhibitor, single point]
16 | CCCN(CCC)CCCNC(=O)c1cc2cc3ccc(OC)cc3nc2o1 | inconclusive: 63.1 µM [inhibitor, single point]
17 | COc1cccc2c(C)nc(Nc3nc(CSc4nnc(C)s4)cc(=O)[nH]3)nc12 | inactive
18 | O=c1c(CO)cc(CO)cc(CO)c1O | inactive
19 | Cc1cccc(NC(=O)CNC(=O)CCc2nc3sc4c(c3c(=O)[nH]2)CCCC4)c1C | inconclusive: 50.1 µM [inhibitor, partial curve, poor fit]
20 | O=C(NC(=S)Nc1cccnc1)c1cccc(Br)c1 | active: 56.2 µM
21 | Cc1cc(=O)n(CCO)c(O)c1C#N | inconclusive: 79.4 µM [inhibitor, partial curve]
22 | CCOc1cc(C(C(=O)NCC2CCCO2)N(C(=O)Cn2nnc3ccccc32)c2ccc(NC(C)=O)cc2)ccc1O (configuration not stated) | inconclusive: 31.6 µM [inhibitor, single point]
